Results on one molecule are retold here after PubChem BioAssay (NCI).

The structures appear in SMILES notation.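 Here, GI50 denotes the concentration required for 50% inhibition of growth.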 Certain results were filed several times, with different values. The list is limited to them. The source may hold further records. Values that stand side by side repeat one measurement (runs, samples, wells, individuals or studies). Brackets tell where a record comes from. A, B and so on number the origins entry by entry.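 TGI is the concentration that stops growth completely.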 Some results are limits rather than exact numbers.

Test systems include A498 renal; A549 NSCLC; DU-145 prostate; HOP-62 NSCLC; HT29 colon; KM12 colon; LOX IMVI melanoma; MCF7 breast; MDA-MB-468 breast; NCI-H460 NSCLC; NCI-H522 lung; OVCAR-5 ovarian; RXF 393 renal; SK-OV-3 ovarian; TK-10 renal; U251 glioblastoma; UACC-257 melanoma; UO-31 renal.
Holding throughout (assay): NCI-60 cell line screen, 384-well format

For `CCc1nc(C(N)=O)c(Nc2ccc(N3CCC(N4CCN(C)CC4)CC3)c(OC)c2)nc1NC1CCOCC1`, the TGI in the experiment with A498 renal is > 65.2 µM [sample A, mean of 2 tests] and 3.75 µM [sample B, 1 test]; in the experiment with A549 NSCLC it was > 24.6 µM [sample A, mean of 2 tests] and 1.57 µM [sample B, 1 test]; with DU-145 prostate, > 100 µM [sample A, 1 test] and 6.02 µM [sample B, 1 test]; with HOP-62 NSCLC, > 100 µM [sample A, mean of 2 tests] and 7.84 µM [sample B, 1 test]; in the experiment on HT29 colon, 6.39 µM [sample A, 1 test] and 570 nM [sample B, 1 test]; in the experiment on KM12 colon it was > 100 µM [sample A, mean of 2 tests] and 218 nM [sample B, 1 test]. Also, the TGI with LOX IMVI melanoma is 11.7 µM [sample A, mean of 2 tests] and 892 nM [sample B, 1 test]; in the experiment with MCF7 breast, > 100 µM [sample A, mean of 2 tests] and 8.78 µM [sample B, 1 test]; with MDA-MB-468 breast, > 100 µM [sample A, mean of 2 tests] and 9.64 µM [sample B, 1 test]; in the experiment with NCI-H460 NSCLC, > 100 µM [sample A, mean of 2 tests] and 1.64 µM [sample B, 1 test]; in the experiment on NCI-H522 lung it was > 26.8 µM [sample A, mean of 2 tests] and 2.37 µM [sample B, 1 test]; in the experiment on OVCAR-5 ovarian it was > 27.2 µM [sample A, mean of 2 tests] and 875 nM [sample B, 1 test]. For the same molecule, the TGI in the experiment with RXF 393 renal was 7.59 µM [sample A, mean of 2 tests] and 745 nM [sample B, 1 test]; with SK-OV-3 ovarian, > 100 µM [sample A, mean of 2 tests] and 532 nM [sample B, 1 test]; with TK-10 renal, > 100 µM [sample A, mean of 2 tests] and 7.05 µM [sample B, 1 test]; in the experiment with U251 glioblastoma, > 100 µM [sample A, mean of 2 tests] and 3.94 µM [sample B, 1 test]; in the experiment on UACC-257 melanoma, > 20.6 µM [sample A, mean of 2 tests] and 1.31 µM [sample B, 1 test]; in the experiment on UO-31 renal, > 100 µM [sample A, 1 test] and 820 nM [sample B, 1 test]. In addition, the GI50 with NCI-H522 lung is 4.98 µM [sample A, mean of 2 tests] and 181 nM [sample B, 1 test]; in the experiment with UACC-257 melanoma it was 3.59 µM [sample A, mean of 2 tests] and 257 nM [sample B, 1 test].
